According to the supplement of paper PMC3334620:
In all, about 33,000 sequences were measured (“E-score (-0.5 to 0.5)”: median about -0.036, highest 2% from about 0.37 on). Some of the results follow.

molecular target: T1, Yer064c (UniProt P40041); assay: PBM E-score (8-mer binding enrichment) (E-score (-0.5 to 0.5)); higher = stronger / more preferred TF binding; most listed sequences are background and not binding sites; conditions: protein concentration: 200 nM; construct: GST-full length
T1 sequence: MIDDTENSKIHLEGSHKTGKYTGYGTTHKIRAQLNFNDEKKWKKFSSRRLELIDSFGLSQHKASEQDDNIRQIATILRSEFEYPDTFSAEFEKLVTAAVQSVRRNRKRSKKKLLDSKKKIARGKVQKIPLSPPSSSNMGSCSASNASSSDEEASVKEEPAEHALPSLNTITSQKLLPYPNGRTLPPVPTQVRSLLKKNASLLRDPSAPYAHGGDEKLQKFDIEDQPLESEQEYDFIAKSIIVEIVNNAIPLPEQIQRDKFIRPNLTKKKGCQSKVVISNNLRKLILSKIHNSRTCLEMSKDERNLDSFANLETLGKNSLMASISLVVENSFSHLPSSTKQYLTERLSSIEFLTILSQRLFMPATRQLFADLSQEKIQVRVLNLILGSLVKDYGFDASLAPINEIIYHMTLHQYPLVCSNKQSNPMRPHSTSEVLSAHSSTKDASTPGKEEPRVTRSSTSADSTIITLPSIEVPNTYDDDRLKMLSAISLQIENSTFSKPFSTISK
In short: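 Using PURExpress in vitro transcription/translation, GST-tagged yeast transcription factors were made in full-length or DNA-binding-domain form. These were applied at about 100-200 nM to double-stranded universal all-10-mer Agilent arrays, and bound protein was detected with fluorescent anti-GST. Scans were normalised with masliner before the Universal PBM Analysis Suite assigned E-scores to ungapped eight-base words pooled with their reverse complements.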

Sequence | PBM E-score
CCGAAACC | -0.277
ACTCCATG | 0.221
GTGCTACA | -0.0701
CTTGGCCC | -0.246
GGATCCCC | -0.351
CATCTGCA | -0.00401
AGCTTGTG | -0.0804
GTTGCCCA | 0.0844
TTCGAAAA | 0.11
ATTTAGCA | 0.0316
TAGCAGAA | -0.0035
AGGATGAG | 0.125
AGGGAGAC | 0.109
CCTCTGGC | -0.163
ACGTGGAA | -0.0267
AAGTAGTA | 0.0556
ATACTCCC | -0.0449
CGCGAATC | 0.268
ACCAAGAA | 0.0785
AATAGTAT | 0.0632
CAATGAAG | 0.0402
ATGGGGCC | -0.122

Sequence | PBM E-score
AACAGAGA | 0.0575
CTATGTTC | -0.0468
CCATCAAC | 0.107
AATAAGTC | 0.255
AGACCACT | 0.00035
GCCAGCGA | -0.00963
AACTTATT | 0.225
AACGGTTA | -0.0539
ACACTAGC | -0.199
CGGACACG | -0.147
AAGTATCC | -0.102
AACTGTAG | -0.064
CGGGGGTC | -0.27
AAATACAA | -0.0192
GCCTGTAC | -0.18
CACTTCGC | 0.0268
CATGAAAA | 0.115
GGGAACCC | -0.0877
CCGGCTCG | -0.0379
CGACGAGA | -0.0295
TACATCAA | 0.0145
CCGACTCG | 0.296

Sequence | PBM E-score
AGATTTGG | -0.0761
CACAACCA | 0.119
GAGTGGGC | -0.11
AATTCTGC | -0.0838
AAGCGGCG | -0.166
ATACCGAG | 0.133
CGTCATGA | 0.253
ATATGTGC | -0.051
CGTGAACA | -0.0467
AATTAGGC | -0.0732
CTCATTTC | 0.104
ACTGGTAC | 0.0153
ATTTGCCC | -0.156
GGGTATTA | -0.119
ACGAGGTC | 0.0939
ACCCGAAA | 0.00346
AGCATTAT | 0.0325
GCGGGTAA | 0.0295
CATAGAGG | -0.132
GGCCGTAC | -0.0687
CAGTCATC | 0.467
CCACCTGC | -0.296

Sequence | PBM E-score
CGTACCGA | 0.0204
CCTTTCTC | -0.136
CTGCATCC | -0.0702
ACAAACAA | 0.158
ATATATTC | 0.00456
CCCCCATC | -0.407
CCTAATTA | -0.151
AATCCGGC | -0.099
GTCCTTAA | 0.288
CGTAATAG | -0.0806
TAGGTCAA | 0.176
ATAGTCTA | 0.216
TCCGTCCA | -0.0212
GCGGTTAC | 0.0193
CAAGTTTA | 0.00738
GATCGAAC | -0.088
CCCAGTGC | -0.27
AGTTTCTG | 0.083
GAGCTTCA | -0.142
GTTTTGCA | 0.0104
